According to the supplement of paper PMC6206098:
± gives the uncertainty stated by the source. The sequences are guide strands of siRNAs; only the seed at positions 2 to 7 varies.

Tests used:
H460 = experiment: cell viability relative to lipid-only control; higher = less toxic; conditions: concentration: 10 nM; 96 h; Homo sapiens
HeyA8 = experiment: as above; conditions: concentration: 10 nM; 96 h; Homo sapiens
M565 = experiment: as above; conditions: concentration: 10 nM; 96 h; Mus musculus
3LL = experiment: cell viability relative to siNT1 control; HeyA8 human ovarian and H460 human lung cancer; M565 mouse liver and 3LL mouse lung cancer; siNT1 is a non-toxic control siRNA; higher = less toxic; conditions: concentration: 10 nM; 96 h; Mus musculus
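Throughout, for cell viability relative to lipid-only control: reverse lipid transfection in 384-well plates, in triplicate, of duplexes on a non-toxic 19mer backbone with passenger strand 2′-O-methylated at positions 1 and 2, luminescence viability read-out.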
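Throughout, for cell viability relative to siNT1 control: Luminescence-based viability of cells reverse transfected in 384-well plates with lipid-complexed siRNAs built on a non-toxic 19mer backbone whose passenger strand carries 2′-O-methyl groups at positions 1 and 2, triplicates.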

Sequence | cell viability (H460) [%] | cell viability (HeyA8) [%] | cell viability (M565) [%] | cell viability (3LL) [%]
UCGGACCACAUGUAAACCAAA | 65.7 ± 9.9 | 65.1 ± 4.1 | 7.75 ± 1.6 | 36.9 ± 7.8
UUCCAGCACAUGUAAACCAAA | 25.2 ± 1.1 | 51.4 ± 3.4 | 62.8 ± 6.7 | 27.5 ± 1.8
UAGUCUUACAUGUAAACCAAA | 89.8 ± 12 | 69.9 ± 6.8 | 18.8 ± 2.4 | 34.5 ± 5.9
UCUUAAUACAUGUAAACCAAA | 61.9 ± 13 | 84.3 ± 12 | 79.7 ± 14 | 96.8 ± 15
UCUUACAACAUGUAAACCAAA | 67.8 ± 4.9 | 85.4 ± 5.6 | 70.7 ± 12 | 94.6 ± 17
UCACCUGACAUGUAAACCAAA | 49.1 ± 1.5 | 84 ± 4.8 | 77.5 ± 4.5 | 89.9 ± 17
UGCGGUUACAUGUAAACCAAA | 38.8 ± 2.4 | 5.08 ± 0.89 | 20.6 ± 7.1 | 74.3 ± 5.1
UAAUUAGACAUGUAAACCAAA | 90.7 ± 0.92 | 82.6 ± 7.6 | 79.1 ± 17 | 110 ± 11
UGUAUCGACAUGUAAACCAAA | 82.8 ± 13 | 82.7 ± 9.5 | 90.7 ± 5 | 88.1 ± 5
UUUUAGGACAUGUAAACCAAA | 70.8 ± 1.4 | 96.5 ± 6.8 | 89.8 ± 4.6 | 88.9 ± 3.3
UUAAAUUACAUGUAAACCAAA | 75.3 ± 17 | 89.6 ± 7.5 | 108 ± 2.9 | 89.8 ± 4.2
UCCUCGUACAUGUAAACCAAA | 71.1 ± 8.9 | 68.9 ± 12 | 59.7 ± 6 | 83.5 ± 17
UAACUAUACAUGUAAACCAAA | 68 ± 5.3 | 94.4 ± 13 | 78.8 ± 8.2 | 93.9 ± 14
UGUGACUACAUGUAAACCAAA | 26.2 ± 4.2 | 21.7 ± 1.2 | 55.7 ± 8.3 | 42.5 ± 11
UCUUCUCACAUGUAAACCAAA | 63.8 ± 4.3 | 52.1 ± 4 | 47 ± 12 | 90.2 ± 12
UUCUUACACAUGUAAACCAAA | 54.2 ± 11 | 58.6 ± 5.5 | 103 ± 12 | 96.2 ± 13
UCGCUUAACAUGUAAACCAAA | 71.6 ± 11 | 83 ± 2 | 79.8 ± 7 | 101 ± 21
UCAGCACACAUGUAAACCAAA | 51.1 ± 1.9 | 74.6 ± 5.8 | 23.8 ± 1.1 | 67.2 ± 21
UUCCCUCACAUGUAAACCAAA | 36.9 ± 4.2 | 48.5 ± 2.4 | 45.3 ± 4.3 | 33.7 ± 6.8
UCGGUUGACAUGUAAACCAAA | 62.4 ± 4.6 | 72.9 ± 6.8 | 72.5 ± 8.8 | 95.2 ± 12

Sequence | cell viability (H460) [%] | cell viability (HeyA8) [%] | cell viability (M565) [%] | cell viability (3LL) [%]
UUGCCGGACAUGUAAACCAAA | 36.9 ± 3.4 | 59.1 ± 3.8 | 55.3 ± 20 | 32.8 ± 4.7
UCUCAUUACAUGUAAACCAAA | 22 ± 1.4 | 88.5 ± 7.8 | 71.3 ± 11 | 108 ± 15
UGUUAACACAUGUAAACCAAA | 64.8 ± 4 | 61.6 ± 15 | 55.8 ± 8.4 | 98.2 ± 7.1
UAAGGUGACAUGUAAACCAAA | 99.3 ± 8.9 | 88.4 ± 9.4 | 48.4 ± 3.7 | 80.3 ± 5.1
UCCUGACACAUGUAAACCAAA | 43.6 ± 3.2 | 13.1 ± 1.9 | 7.29 ± 3.4 | 27.4 ± 3.1
UAACGAAACAUGUAAACCAAA | 65.3 ± 3.3 | 92 ± 5 | 79.8 ± 4.8 | 92.7 ± 10
UUUAUCUACAUGUAAACCAAA | 67.6 ± 8.1 | 92 ± 4.4 | 67.6 ± 8.8 | 99.2 ± 8.9
UAGGCGCACAUGUAAACCAAA | 27.2 ± 7.4 | 24.7 ± 2.6 | 9.69 ± 2.9 | 16.7 ± 3.2
UGCAACCACAUGUAAACCAAA | 37.9 ± 3.1 | 14.9 ± 1.5 | 23.4 ± 2.9 | 34.8 ± 5.2
UUAAACAACAUGUAAACCAAA | 83.7 ± 20 | 99.2 ± 4.2 | 107 ± 21 | 98.9 ± 13
UUGCCUCACAUGUAAACCAAA | 56.3 ± 2.9 | 73.5 ± 4.1 | 15.8 ± 3.5 | 28.4 ± 3.4
UUGGCAUACAUGUAAACCAAA | 85.6 ± 6.4 | 71.6 ± 5 | 42.2 ± 7.9 | 44.1 ± 0.98
UCCGACAACAUGUAAACCAAA | 73.2 ± 19 | 83.5 ± 2.9 | 87.2 ± 8.5 | 110 ± 20
UACACGGACAUGUAAACCAAA | 63.8 ± 5.1 | 75.5 ± 1.2 | 53.5 ± 7.3 | 73 ± 3.5
UAUAUCCACAUGUAAACCAAA | 42.4 ± 7.3 | 18.9 ± 0.81 | 40.8 ± 10 | 25.6 ± 3.3
UCCAAAAACAUGUAAACCAAA | 76.5 ± 4.7 | 86.6 ± 11 | 82.9 ± 14 | 108 ± 27
UGUUGAAACAUGUAAACCAAA | 68.5 ± 8.2 | 89 ± 12 | 40.4 ± 1.2 | 102 ± 7.1
UCAGGAGACAUGUAAACCAAA | 54.5 ± 7.7 | 56.2 ± 4.2 | 32.1 ± 6.2 | 101 ± 17
UGAUACGACAUGUAAACCAAA | 51.3 ± 2.8 | 84.4 ± 6.4 | 58.7 ± 7 | 87.4 ± 19
UGACGGCACAUGUAAACCAAA | 20.5 ± 1.9 | 10.4 ± 0.86 | 16.3 ± 3.9 | 27.4 ± 3.2

Sequence | cell viability (H460) [%] | cell viability (HeyA8) [%] | cell viability (M565) [%] | cell viability (3LL) [%]
UGGGUAGACAUGUAAACCAAA | 18.3 ± 5.9 | 4.3 ± 0.55 | 18.8 ± 5.9 | 2.58 ± 0.82
UCACGUCACAUGUAAACCAAA | 32.8 ± 4.1 | 76.6 ± 4.9 | 37.6 ± 6.5 | 88.1 ± 7.9
UCGCUAGACAUGUAAACCAAA | 67 ± 8.8 | 91 ± 5.3 | 93.1 ± 11 | 96.2 ± 14
UACGACAACAUGUAAACCAAA | 75 ± 14 | 89.1 ± 12 | 77 ± 8 | 88.8 ± 5.8
UCCAACGACAUGUAAACCAAA | 71 ± 20 | 82.4 ± 7.5 | 76.9 ± 2.1 | 111 ± 14
UUUCCGGACAUGUAAACCAAA | 76.8 ± 14 | 97.7 ± 2 | 32.9 ± 3.3 | 92.3 ± 5.9
UCAAAAGACAUGUAAACCAAA | 64.8 ± 9.3 | 83.4 ± 3.2 | 65.2 ± 9.1 | 86 ± 18
UCGAGCAACAUGUAAACCAAA | 66.4 ± 14 | 81 ± 6.4 | 70 ± 9.2 | 94 ± 13
UAGUUUAACAUGUAAACCAAA | 64.9 ± 7.5 | 70 ± 7.4 | 62.3 ± 5.8 | 93.5 ± 6.7
UAGAUUCACAUGUAAACCAAA | 67.3 ± 11 | 46.3 ± 2.6 | 61.1 ± 12 | 82.6 ± 8.9
UGGACACACAUGUAAACCAAA | 38 ± 1.5 | 74 ± 7.6 | 21.2 ± 3.2 | 44.2 ± 5.6
UUUCUAAACAUGUAAACCAAA | 46.1 ± 6 | 98.4 ± 4.6 | 93.2 ± 7.7 | 102 ± 8.2
UUUCUGAACAUGUAAACCAAA | 51.3 ± 3 | 79 ± 2.6 | 93.9 ± 11 | 104 ± 4.2
UGCCGACACAUGUAAACCAAA | 39.8 ± 7.1 | 8.66 ± 1.2 | 30.9 ± 2.7 | 34.7 ± 8.7
UAAUCUUACAUGUAAACCAAA | 92.2 ± 14 | 68.6 ± 3 | 93.4 ± 23 | 122 ± 10
UUAGUACACAUGUAAACCAAA | 30.2 ± 1.2 | 54 ± 2.7 | 110 ± 14 | 12.3 ± 4.1
UAACGUGACAUGUAAACCAAA | 73.6 ± 19 | 82.5 ± 5.9 | 85.7 ± 21 | 89.9 ± 5.7
UCAGGUGACAUGUAAACCAAA | 57.5 ± 6.8 | 77.8 ± 1.3 | 47 ± 3.8 | 88.2 ± 14
UGUUGCCACAUGUAAACCAAA | 18.9 ± 2.4 | 3.64 ± 0.33 | 16.7 ± 6.5 | 6.71 ± 4.2
